Some of the results follow.
Each sequence was assayed against T1, OsWOX13 (Oryza sativa, UniProt Q5QMM3 1-267) (assay: protein-binding microarray (RPBM); PBS, 2% BSA, 51.3 ng/ul salmon testes DNA, 50 uM zinc acetate, 200 nM TF, 25 C, 1 h; high values mean tight binding). Details: protein: recombinant; tags: N-terminal polyhistidine and DsRed monomer fusion (pET32a); label: CyDye5-dUTP incorporated in the synthesized complementary strand; 3' TTTTT single-stranded linker to array surface; dsDNA, one strand shown.
T1 sequence: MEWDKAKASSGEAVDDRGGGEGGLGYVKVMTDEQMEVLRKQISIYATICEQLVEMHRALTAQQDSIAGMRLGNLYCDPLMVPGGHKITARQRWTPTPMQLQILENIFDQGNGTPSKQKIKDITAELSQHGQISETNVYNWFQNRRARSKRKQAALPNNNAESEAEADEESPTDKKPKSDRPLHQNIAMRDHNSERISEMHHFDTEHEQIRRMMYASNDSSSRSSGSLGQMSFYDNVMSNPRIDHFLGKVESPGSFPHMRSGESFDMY
In short: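 Using Ni–NTA, transcription factors fused N-terminally to polyhistidine and DsRed were purified after expression in E. coli BL21-CodonPlus. These were incubated at 200 nM with a blocked, double-stranded custom Agilent array for 1 h at 25 °C in a buffer containing 50 µM zinc acetate, and the array was washed. The binding signal is per-feature fluorescence intensity (arbitrary units) on an Axon 4000B scanner.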

| Sequence | binding signal |
| --- | --- |
| AGTTCAATTTTCTTATCTAAACAAAATTTGTTCAAAATCACGGAGTCACCTAGTGCAG | 4710 fluorescence intensity (a.u.) |
| ACCGTAACCTGATTGATAATTTACTGATTTACTCATTGTTCGGAGTCACCTAGTGCAG | 64700 fluorescence intensity (a.u.) |
| GTTGTCGCACACATAATTATCATCCATCGATCCATCCATACGGAGTCACCTAGTGCAG | 3600 fluorescence intensity (a.u.) |
| ATGATTTCATGATTCTGCATATCTCGCCCATTAGCTGTCACGGAGTCACCTAGTGCAG | 3400 fluorescence intensity (a.u.) |
| GGTACAAAATTGTGATTGATTTCATGTAAATAAGATGTTCCGGAGTCACCTAGTGCAG | 40300 fluorescence intensity (a.u.) |
| GTAAGATTTAAATTTACACCCACTTATACTCCACTTACATCGGAGTCACCTAGTGCAG | 17400 fluorescence intensity (a.u.) |
| ATGATTATTTAAAACATTTAATTTATCTATGATCAAGTAGCGGAGTCACCTAGTGCAG | 35600 fluorescence intensity (a.u.) |
| GGAAATTTATTCCATTAAATTGCCTGGCAATTTTAAGCTGCGGAGTCACCTAGTGCAG | 26300 fluorescence intensity (a.u.) |
| GAAATTGACAACAAAAGTAAACACGCCCGTAGTTTGAAGTCGGAGTCACCTAGTGCAG | 21200 fluorescence intensity (a.u.) |
| ATCTACTGATTTACAACCTCCTTAATTAACAAGCACGGGTCGGAGTCACCTAGTGCAG | 29500 fluorescence intensity (a.u.) |
| TATATATATTTTGTTCCAATCACATTTCACATACCACAGTCGGAGTCACCTAGTGCAG | 4990 fluorescence intensity (a.u.) |
| AGTATAAAATATAATAGATTGACAGAGAACAAACTAGTAACGGAGTCACCTAGTGCAG | 17900 fluorescence intensity (a.u.) |
| TGTTACATATAATGAAATTAATTTGGTATTGTAGATGTTGCGGAGTCACCTAGTGCAG | 13600 fluorescence intensity (a.u.) |
| CCAAATAGGAAAATTTCCTATAGGATTTAAATCCTATGAACGGAGTCACCTAGTGCAG | 3750 fluorescence intensity (a.u.) |
| TTCATTTGATTTAGGATTTAGGATTAAGTTCATTTGAATCCGGAGTCACCTAGTGCAG | 7200 fluorescence intensity (a.u.) |
| ATTTAAATTAAATAATTAGTAATTCTTTGAGAAGATTAACCGGAGTCACCTAGTGCAG | 33900 fluorescence intensity (a.u.) |
| GAAAATATAATTTGTTGTATTCTGTTGTATTGTAGTGACTCGGAGTCACCTAGTGCAG | 5890 fluorescence intensity (a.u.) |
| GAGCGAGTACAATAGCAGTCTACAAGTAAGTTGTAATCACCGGAGTCACCTAGTGCAG | 3730 fluorescence intensity (a.u.) |
| AATTTAAGTAATTATTAATTCTTTTCCTATCATTTGATTCCGGAGTCACCTAGTGCAG | 4780 fluorescence intensity (a.u.) |
| ACGGTTTGTTAATTAATTATGTTAACCCCTGTTATATTCACGGAGTCACCTAGTGCAG | 13800 fluorescence intensity (a.u.) |
| ACCGCCATCATCAACCAATCAACGTACAGGGCCGGCGCCGCGGAGTCACCTAGTGCAG | 31000 fluorescence intensity (a.u.) |

| Sequence | binding signal |
| --- | --- |
| ATAACATTAAATTAATTCTATTACATCTAACATTACATATCGGAGTCACCTAGTGCAG | 12900 fluorescence intensity (a.u.) |
| TTTAATTATCTTCTCCTCACTATCCCCTCTCTCTCTCTCCCGGAGTCACCTAGTGCAG | 24100 fluorescence intensity (a.u.) |
| GAGTGATGAGCAGCTAATAGGTGGACACAATGGCTATTAACGGAGTCACCTAGTGCAG | 4790 fluorescence intensity (a.u.) |
| CATAAATTTTCCGTGCCAACTTTGATCATCCGTTTTATTTCGGAGTCACCTAGTGCAG | 5660 fluorescence intensity (a.u.) |
| GATGTGATAATTTGGACCTTCAAGTCCTGTTTGTTCAGTGCGGAGTCACCTAGTGCAG | 5790 fluorescence intensity (a.u.) |
| GCTAATCTGACAAATGAAACAGCAGGAGCACAGCTGCGTTCGGAGTCACCTAGTGCAG | 3360 fluorescence intensity (a.u.) |
| TAAATGTCATTTTGTCAATTACTTAACACCGTTAATTTCACGGAGTCACCTAGTGCAG | 20300 fluorescence intensity (a.u.) |
| TTCAAATTAAGCTGCTTTAGATTATAATCTGAAGCTGGGCCGGAGTCACCTAGTGCAG | 17800 fluorescence intensity (a.u.) |
| GTTCAATCACCTACTCCCTCTTCCTCCTACCCAAGTCAGCCGGAGTCACCTAGTGCAG | 14300 fluorescence intensity (a.u.) |
| GCCAACTACCCTGTCACTCCTTCATAAATTTCCCTCACCTCGGAGTCACCTAGTGCAG | 3180 fluorescence intensity (a.u.) |
| ATGATTTAATTACAAACAGATCCAGACTATGCCGTCGTGGCGGAGTCACCTAGTGCAG | 47400 fluorescence intensity (a.u.) |
| TGTGTATTATGTATTAATTTGATGAGGTATATTCACCATCCGGAGTCACCTAGTGCAG | 5440 fluorescence intensity (a.u.) |
| AAGCTTAATTAAACAAAACCGATGAGCTCCTGCTCTTTGGCGGAGTCACCTAGTGCAG | 15700 fluorescence intensity (a.u.) |
| CCTTGACAACGAGAATTTCTTCCCACGTACTTGATCGACTCGGAGTCACCTAGTGCAG | 3350 fluorescence intensity (a.u.) |
| ACACTAATCACCTGATAGATGAACTTAACAAATTCGCCATCGGAGTCACCTAGTGCAG | 25900 fluorescence intensity (a.u.) |
| TGGATAATGGATTGGCTAATAGGGATTGGTACTTGCCGTCCGGAGTCACCTAGTGCAG | 10100 fluorescence intensity (a.u.) |
| AATATCAAATCTCGTACAAATTAACTTATTTCATCACAGCCGGAGTCACCTAGTGCAG | 5130 fluorescence intensity (a.u.) |
| ATGATTTTATATTCAAATTTTGTTTTAAAATAAGTACAATCGGAGTCACCTAGTGCAG | 3500 fluorescence intensity (a.u.) |
| GAGCTCCAATTACCTCCATGTCATTTTATAACTAATAGAGCGGAGTCACCTAGTGCAG | 6770 fluorescence intensity (a.u.) |
| TCTAATGAGCCTAATTAATCCATGATTAGCCTATGTGATGCGGAGTCACCTAGTGCAG | 45900 fluorescence intensity (a.u.) |
| TCCAATTAAATTACATCAAGCATTCCCAACCTGCAGGTAGCGGAGTCACCTAGTGCAG | 18500 fluorescence intensity (a.u.) |

From PMC7819943, “Rice protein-binding microarrays: a tool to detect cis-acting elements near promoter regions in rice”
